# Source: the supplement of paper PMC7826260
# The other results are listed elsewhere or left out. One pool of 16,384 single-stranded DNAs met each Rep nickase domain in vitro (1 h at 37 °C, 3 µM enzyme); the outer parts of the 90-letter strands are left off. The score is log2 (uncut reads / reads without enzyme); strong cutting gives strongly negative numbers. There is no active / inactive call. Shares of all reads are compared; uncut strands gain when others are lost, and binding without cutting may add a little.
# Tests used:
# Assay in all cases: uncleaved DNA left, log2 of reads against the no-enzyme library (log2 ratio); higher = less cleavage (more negative = more Rep cleavage of the k-mer); sequences stand for … in CTCGTCCG…ACCGGAGA
# [1] = test system: T1, Rep nickase domain of Muscovy duck circovirus
# T1 sequence (residues 1-111 of Rep, tag left off): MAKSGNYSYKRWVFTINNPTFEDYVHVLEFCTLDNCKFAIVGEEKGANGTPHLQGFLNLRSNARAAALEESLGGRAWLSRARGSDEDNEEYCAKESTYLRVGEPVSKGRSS
# Method: (§1)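 A pool of 90-nt single-stranded DNAs with seven random bases just before the constant AC of the nick site (name = the seven bases) was cut by 3 µM recombinant His6-SUMO-tagged Rep nickase domain (300 nM DNA, 50 mM HEPES pH 8.0, 50 mM NaCl, 1 mM MnCl2, 1 h, 37 °C, three replicates). Uncut DNA was amplified and sequenced.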
# [2] = test system: T2, Rep nickase domain of banana bunchy top virus
# T2 sequence (residues 1-94 of Rep, tag left off): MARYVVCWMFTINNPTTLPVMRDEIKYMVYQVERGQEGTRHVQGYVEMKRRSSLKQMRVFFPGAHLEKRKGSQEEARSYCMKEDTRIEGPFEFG
# Method: as §1
# [3] = test system: T3, Rep nickase domain of cabbage leaf curl virus
# T3 sequence (residues 1-116 of Rep, tag left off): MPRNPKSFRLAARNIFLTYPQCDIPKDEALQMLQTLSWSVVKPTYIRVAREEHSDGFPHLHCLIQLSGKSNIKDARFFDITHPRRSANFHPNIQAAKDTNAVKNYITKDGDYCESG
# Method: as §1
# [4] = test system: T4, Rep nickase domain of chickpea chlorotic dwarf virus
# T4 sequence (residues 1-124 of Rep, tag left off): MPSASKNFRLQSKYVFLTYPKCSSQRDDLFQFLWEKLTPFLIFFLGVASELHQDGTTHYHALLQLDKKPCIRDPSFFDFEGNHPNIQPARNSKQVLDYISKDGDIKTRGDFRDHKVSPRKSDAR
# Method: as §1
# [5] = test system: T5, Rep nickase domain of faba bean necrotic yellows virus
# T5 sequence (residues 1-98 of Rep, tag left off): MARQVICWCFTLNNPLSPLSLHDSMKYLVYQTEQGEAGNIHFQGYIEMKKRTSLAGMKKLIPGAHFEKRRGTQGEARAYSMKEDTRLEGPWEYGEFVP
# Method: as §1
# [6] = test system: T6, Rep nickase domain of maize striate mosaic virus
# T6 sequence (residues 1-117 of Rep, tag left off): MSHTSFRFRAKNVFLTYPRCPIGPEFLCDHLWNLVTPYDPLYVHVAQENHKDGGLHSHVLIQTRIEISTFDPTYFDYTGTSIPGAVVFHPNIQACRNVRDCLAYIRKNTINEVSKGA
# Method: as §1
# [7] = test system: T7, Rep nickase domain of porcine circovirus 2
# T7 sequence (residues 2-116 of Rep, tag left off): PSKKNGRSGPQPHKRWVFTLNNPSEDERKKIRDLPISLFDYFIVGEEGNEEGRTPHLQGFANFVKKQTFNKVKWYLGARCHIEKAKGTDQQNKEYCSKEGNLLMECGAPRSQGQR
# Method: as §1
# [8] = test system: T8, Rep nickase domain of tomato golden mosaic virus
# T8 sequence (residues 1-124 of Rep, tag left off): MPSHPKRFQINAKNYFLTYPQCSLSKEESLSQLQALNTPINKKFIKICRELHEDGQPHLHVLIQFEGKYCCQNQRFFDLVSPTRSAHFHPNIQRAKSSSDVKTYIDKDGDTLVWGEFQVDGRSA
# Method: as §1
# [9] = test system: T9, Rep nickase domain of tomato yellow leaf curl virus
# T9 sequence (residues 1-136 of Rep, tag left off): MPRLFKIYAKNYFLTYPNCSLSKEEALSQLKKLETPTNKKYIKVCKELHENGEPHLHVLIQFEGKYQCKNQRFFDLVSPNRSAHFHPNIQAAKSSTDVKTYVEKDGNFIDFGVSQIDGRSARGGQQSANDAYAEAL
# Method: as §1
# [10] = test system: T10, Rep nickase domain of wheat dwarf virus
# T10 sequence (residues 1-137 of Rep, tag left off): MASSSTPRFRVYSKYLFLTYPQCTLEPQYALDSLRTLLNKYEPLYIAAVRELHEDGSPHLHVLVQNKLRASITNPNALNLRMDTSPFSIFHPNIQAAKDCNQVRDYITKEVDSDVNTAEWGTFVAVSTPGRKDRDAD
# Method: as §1
Sequence,uncleaved DNA left (log2) [1],uncleaved DNA left (log2) [2],uncleaved DNA left (log2) [3],uncleaved DNA left (log2) [4],uncleaved DNA left (log2) [5],uncleaved DNA left (log2) [6],uncleaved DNA left (log2) [7],uncleaved DNA left (log2) [8],uncleaved DNA left (log2) [9],uncleaved DNA left (log2) [10]
TCCCAGG,0.116,0.0569,0.5,1.31,0.0242,1.73,0.0498,0.122,-0.0917,-0.0556
GTTAAGT,0.0996,0.038,0.234,0.64,0.0146,0.964,0.0984,0.116,0.0611,-0.0487
GCCTACT,-2.4,-0.178,-0.208,-2.06,-0.147,-0.0616,-2.64,-0.0396,-0.127,-0.0712
GGAGACG,0.12,0.101,0.744,1.66,0.131,1.89,0.326,0.0253,0.141,0.073
TCCGGAA,0.11,0.0848,0.352,0.656,-0.0112,1,0.224,0.14,0.004,-0.0284
CGTACTC,-0.0255,-0.0673,-0.00365,0.0176,-0.0725,0.382,-0.0627,-0.265,-0.0524,0.0844
CAGTATT,-3.94,-3.77,-3.58,-3.14,-4.62,-1.78,-4.38,-3.53,-0.169,-2.32
TTGGGGA,-0.0278,-0.169,0.299,0.674,0.0654,0.617,0.151,-0.0751,-0.0476,-0.0182
GGTTCAC,0.0768,0.0878,0.369,1.06,0.119,1.69,0.101,0.0395,0.177,0.162
TCTGCGG,0.171,-0.0441,0.0562,0.278,-0.0121,0.161,0.0981,0.0331,-0.0764,-0.0204
CGAATGT,-0.0728,-0.102,-0.0495,0.514,-0.0336,1.49,-0.0645,-0.112,-0.219,-0.000162
AGTGAGG,-0.0274,-0.00472,0.0149,0.718,-0.0488,1.34,0.0493,0.117,-0.0296,0.000665
TCAGCGA,0.0161,-0.0999,-0.566,-0.304,0.00152,-1.04,0.146,-0.0579,0.0487,-0.118
TTGCAGC,-0.0435,-0.125,-0.926,-0.437,-0.0572,-1.14,0.103,-0.0842,-0.125,-0.093
AATAAAC,0.0315,-0.0421,-0.0123,-0.433,0.0865,-0.77,0.109,-0.00459,-0.0585,-0.0189
TCCCCAT,0.163,0.104,0.309,-0.388,0.0867,-0.231,-0.0272,-0.0147,0.208,0.129
GTGCAAA,0.0847,0.253,0.467,1.29,0.163,1.74,0.207,0.285,0.279,0.285
TTTACGT,-0.00545,-0.0329,0.318,0.0361,-0.0544,0.648,0.045,-0.0547,-0.0613,-0.1
ACAATCA,0.0132,0.112,0.0291,-1.07,0.0144,-0.333,0.14,0.0516,-0.0244,0.172
TACTGGA,-0.11,0.0239,-0.00493,-0.00784,-0.0355,0.101,-1.55,-0.0238,-0.0282,0.0707

Sequence,uncleaved DNA left (log2) [1],uncleaved DNA left (log2) [2],uncleaved DNA left (log2) [3],uncleaved DNA left (log2) [4],uncleaved DNA left (log2) [5],uncleaved DNA left (log2) [6],uncleaved DNA left (log2) [7],uncleaved DNA left (log2) [8],uncleaved DNA left (log2) [9],uncleaved DNA left (log2) [10]
GGAGCCT,0.116,0.221,0.76,1.36,0.141,2.08,0.197,0.125,0.112,0.218
ATGGGCC,0.134,0.111,0.0947,0.491,0.0313,0.105,0.108,0.0198,0.106,0.0883
GATTTAT,-2.26,-1.45,0.288,0.684,-0.182,1.46,-2.73,0.0434,0.187,0.0927
GTGGGTA,0.0385,-0.0303,0.292,1.05,-0.0845,1.76,0.0373,0.102,-0.0573,-0.091
ACATTGC,0.025,-0.0159,-0.105,1.06,-0.00521,0.506,0.127,-0.171,0.148,-0.144
AAACGGG,0.198,0.0854,-0.209,-0.16,0.0759,-0.776,0.153,0.0462,0.0532,-0.00765
GACCAGG,-0.17,-0.0193,0.0693,0.827,-0.0255,0.248,0.00653,-0.0597,-0.0505,0.0637
TCGGTAG,-0.0265,0.0451,-0.17,-0.174,0.04,-0.639,0.253,0.0658,0.11,-0.0555
AACGTGC,-0.0131,-0.00959,-0.477,-0.695,-0.0289,-1.07,0.0963,0.000816,0.138,-0.0918
GTGTATT,-2.1,-1.05,0.122,0.441,-1.23,1.66,-2.83,-0.105,0.0448,0.0396
CGAACGG,0.0159,0.0545,0.193,0.899,-0.0339,1.3,0.121,0.117,-0.103,0.00562
AGCTCGA,0.021,-0.0903,-0.103,0.171,-0.0259,-0.402,-0.154,-0.0452,-0.0202,-0.00411
ACAAGTG,0.00443,0.0207,-0.594,-0.223,0.107,-0.998,0.206,0.101,0.0414,-0.0254
GGCCGAT,0.2,0.161,0.761,1.65,0.0916,1.95,0.265,0.231,0.226,0.188
CAAACGT,-0.025,-0.0178,-0.398,-1.23,-0.0225,-0.823,0.0288,-0.0704,-0.0362,-0.174
ACCATGC,-0.101,0.122,-0.166,0.775,0.17,0.207,0.12,-0.00717,0.0777,-0.0466
TGTTAAC,0.0347,-0.00837,0.316,0.161,-0.0905,1.4,0.0476,0.0171,0.0425,0.0128
ACAATTA,-0.0158,-0.0244,-0.183,-1.71,0.0967,-0.672,0.0167,0.215,-0.0169,-0.101
CCTTATC,0.155,0.327,0.931,1.31,0.265,1.48,0.125,0.205,0.254,0.225
ATAAAGG,-0.0189,-0.0208,0.145,0.898,-0.00391,0.0345,0.114,0.13,-0.098,0.0823

Sequence,uncleaved DNA left (log2) [1],uncleaved DNA left (log2) [2],uncleaved DNA left (log2) [3],uncleaved DNA left (log2) [4],uncleaved DNA left (log2) [5],uncleaved DNA left (log2) [6],uncleaved DNA left (log2) [7],uncleaved DNA left (log2) [8],uncleaved DNA left (log2) [9],uncleaved DNA left (log2) [10]
CCTCGGG,0.143,0.00785,-0.138,0.085,-0.0188,-0.708,0.118,0.0456,0.084,-0.0309
TGCCCCC,-0.156,-0.181,0.168,0.35,-0.05,0.481,-0.317,-0.354,-0.00609,-0.0306
TAAGAGT,0.0467,-0.118,-2.16,-2.12,0.0343,-0.0707,-0.086,-0.223,-0.105,-0.491
CTACGCC,0.0417,0.0145,-0.131,-0.598,0.0763,-0.618,-0.00888,0.0271,0.0254,-0.147
GTTACGC,0.093,0.127,0.31,0.477,0.079,0.496,0.0929,0.0665,0.166,0.111
CTCCCGG,-0.0143,-0.0237,0.351,1.11,-0.243,1.33,0.0414,-0.0716,-0.188,-0.00559
GACGACG,0.0387,0.0751,-0.101,0.361,0.0828,0.334,0.166,0.168,-0.0233,0.245
CACTTGA,-0.0868,-0.0392,-0.37,-0.934,-0.0602,-1.04,-0.539,-0.00315,-0.0825,-0.0313
CCGCAGT,-0.036,-0.171,-0.348,-0.552,-0.036,-0.812,0.0128,-0.0959,-0.118,-0.14
AAATACT,-4.5,-3.47,-4.89,-4.02,-0.89,-3.56,-4.49,-4.01,-3,-4.58
CAGTCAC,0.00112,-0.184,-0.228,-0.478,-0.0849,-0.703,-2.61,-0.0998,-0.131,0.0331
AACAGTC,0.00519,0.116,-0.157,-0.451,0.0241,-0.974,0.231,0.116,0.0929,-0.015
AAGCCAG,0.052,0.0186,-0.314,-0.531,-0.0126,-0.765,0.235,0.131,0.0357,0.155
GACAGAT,0.129,0.131,0.518,1.06,0.0286,1.48,0.168,0.0598,0.0858,0.205
ACCCCTG,0.0721,0.0593,-0.23,-0.323,0.142,-0.493,0.0917,0.103,-0.0247,-0.013
TATTAAT,-3.67,-3.4,-2.88,-2.75,-0.999,-0.288,-3.92,-1.05,0.0506,-1.05
TGCCGCG,-0.128,-0.145,-0.763,0.474,0.0218,-0.497,0.0658,-0.0702,-0.0738,-0.157
GATTCCG,-0.0741,-0.0772,-0.539,-0.391,-0.0385,-0.925,-0.0112,-0.0898,-0.00738,-0.0942
CGATACC,0.0215,0.0701,0.143,0.269,-0.000246,0.35,-0.152,0.0939,0.0277,-0.00549
TACTCGT,-0.765,-0.207,-0.399,-1.84,-0.0115,-0.688,-3.26,-0.0211,0.0106,-0.17
